{"source": "the supplement of paper PMC7125110", "parents": {"B1": {"name": "glmS ribozyme (parent)", "chain": "AUAAAAGCGCCAGAACUACAGAAAUGUAGUUGACGAGGAGGAGGUUUAUCGAAUUUUCGGCGGAUGCCUCCAAA"}}, "settings_in_all_cases": "with glucosamine-6-phosphate", "key": {"[1]": {"variants_of": "B1", "experiment": "self-cleavage kobs at 40 uM GlcN6P; higher = faster cleavage; RNA array", "how_it_was_run": "(§1)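 Barcoded glmS ribozyme variants on sequenced MiSeq chips were transcribed in situ by E. coli RNA polymerase and tracked through a hybridised Cy3 probe at 37 °C. Glucosamine-6-phosphate (40 μM to 10 mM) in HEPES/KCl/Mg(OAc)2 buffer was flowed in, and tiles were imaged over ~14 h. Signals were normalised to baseline and to non-cleaving reference variants; per-tile medians were fit to one- or two-exponential decays to give kobs. kcat and KM came from weighted Michaelis–Menten fits across concentrations.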"}, "[2]": {"variants_of": "B1", "experiment": "self-cleavage kobs at 640 uM GlcN6P; higher = faster cleavage; RNA array", "how_it_was_run": "as §1"}, "[3]": {"variants_of": "B1", "experiment": "self-cleavage kobs at 160 uM GlcN6P; higher = faster cleavage; RNA array", "how_it_was_run": "as §1"}, "[4]": {"variants_of": "B1", "experiment": "self-cleavage kobs at 2500 uM GlcN6P; higher = faster cleavage; RNA array", "how_it_was_run": "as §1"}, "[5]": {"variants_of": "B1", "experiment": "self-cleavage kobs at 10000 uM GlcN6P; higher = faster cleavage; RNA array", "how_it_was_run": "as §1"}}, "note": "± gives the standard error. This sample is rich in variants without activity."}
{"variant": "AUAAAAGCGCCAGAACUACAGAAAUGUAGUCGACGAGGACGAGGUUUAUCGAGUUUUCGGCGGAUGCCUCCAAA", "note": "[U31C G40C A53G]", "values": [{"measurement": "self-cleavage kobs at 40 uM GlcN6P", "setting": "[1]", "value": "< 1e-05", "unit": "s⁻¹"}]}
{"variant": "AUAAAAGCGCCAGAACUACAGAAAUGUAGUAGACGAGGAGGAGUUUUAUCGAAUUUUCGGCGGAUGCCUCCAAA", "note": "[U31A G44U]", "values": [{"measurement": "self-cleavage kobs at 40 uM GlcN6P", "setting": "[1]", "value": "< 1e-05", "unit": "s⁻¹"}]}
{"variant": "AUAAAAGCGCCAGAACUACAGAAAUGUAGUGGACGAGGAGGAGGUUUAUCGAAUUUUCGGCGGAUGCCUCUAAA", "note": "[U31G C71U]", "values": [{"measurement": "self-cleavage kobs at 40 uM GlcN6P", "setting": "[1]", "value": "0.000277 ± 3.1e-05", "unit": "s⁻¹"}, {"measurement": "self-cleavage kobs at 640 uM GlcN6P", "setting": "[2]", "value": "0.00235 ± 0.00045", "unit": "s⁻¹"}, {"measurement": "self-cleavage kobs at 160 uM GlcN6P", "setting": "[3]", "value": "0.000479 ± 8.2e-05", "unit": "s⁻¹"}, {"measurement": "self-cleavage kobs at 2500 uM GlcN6P", "setting": "[4]", "value": "0.00836 ± 0.0019", "unit": "s⁻¹"}, {"measurement": "self-cleavage kobs at 10000 uM GlcN6P", "setting": "[5]", "value": "0.0107 ± 0.0016", "unit": "s⁻¹"}]}
{"variant": "AUAAAAGCGCCAGAACUACAGAAAUGUAGUCCACGAGGAGGAGGUUUAUCGAAUCUUCGGCGGAUGCCUUGAAA", "note": "[U31C G32C U55C C70U C71G]", "values": [{"measurement": "self-cleavage kobs at 40 uM GlcN6P", "setting": "[1]", "value": "< 1e-05", "unit": "s⁻¹"}, {"measurement": "self-cleavage kobs at 640 uM GlcN6P", "setting": "[2]", "value": "< 1e-05", "unit": "s⁻¹"}, {"measurement": "self-cleavage kobs at 2500 uM GlcN6P", "setting": "[4]", "value": "< 1e-05", "unit": "s⁻¹"}]}
{"variant": "AUAAAAGCGCCAGAACUACAGAAAUGUAGUGGACGAGGAGGAGGUUUAUCGAAUUUUCAGCGGAUGCCUCCAAA", "note": "[U31G G59A]", "values": [{"measurement": "self-cleavage kobs at 40 uM GlcN6P", "setting": "[1]", "value": "< 1e-05", "unit": "s⁻¹"}]}
{"variant": "AUAAAAGCGCCAGAACUACAGAAAUGUAGUCGACGAGGAGGAGGUUUAUCGAGUUUUCGGCGGAUGCCUCCAAA", "note": "[U31C A53G]", "values": [{"measurement": "self-cleavage kobs at 40 uM GlcN6P", "setting": "[1]", "value": "0.000158 ± 1.8e-05", "unit": "s⁻¹"}, {"measurement": "self-cleavage kobs at 640 uM GlcN6P", "setting": "[2]", "value": "0.00167 ± 0.00042", "unit": "s⁻¹"}, {"measurement": "self-cleavage kobs at 160 uM GlcN6P", "setting": "[3]", "value": "0.000305 ± 5.6e-05", "unit": "s⁻¹"}, {"measurement": "self-cleavage kobs at 2500 uM GlcN6P", "setting": "[4]", "value": "0.00309 ± 0.00042", "unit": "s⁻¹"}, {"measurement": "self-cleavage kobs at 10000 uM GlcN6P", "setting": "[5]", "value": "0.00495 ± 0.00059", "unit": "s⁻¹"}]}
{"variant": "AUAAAAGCGCCAGAACUACAGAAAUGUAGUCGACGAGGAGGAGGUUUAUCGAAUUUUCGGCGGAUGCCUCAAAA", "note": "[U31C C71A]", "values": [{"measurement": "self-cleavage kobs at 40 uM GlcN6P", "setting": "[1]", "value": "3.6e-05 ± 1.1e-05", "unit": "s⁻¹"}, {"measurement": "self-cleavage kobs at 640 uM GlcN6P", "setting": "[2]", "value": "0.00018 ± 1.9e-05", "unit": "s⁻¹"}, {"measurement": "self-cleavage kobs at 160 uM GlcN6P", "setting": "[3]", "value": "7.42e-05 ± 8.6e-06", "unit": "s⁻¹"}]}
{"variant": "AUAAAAGCGCCAGAACUACAGAAAUGUAGUUACCGAGGAGGAGGUUUAUCGAAUUUUCGGCGGAUGCGUCGAAA", "note": "[G32A A33C C68G C71G]", "values": [{"measurement": "self-cleavage kobs at 40 uM GlcN6P", "setting": "[1]", "value": "5.72e-05 ± 1.6e-05", "unit": "s⁻¹"}]}
{"variant": "AUAAAAGCGCCAGAACUACAGAAAUGUAGUGGACGAGGAGGAGUUUUAUCGAAUUUUCGGCGGAUGCCUCCAAA", "note": "[U31G G44U]", "values": [{"measurement": "self-cleavage kobs at 40 uM GlcN6P", "setting": "[1]", "value": "< 1e-05", "unit": "s⁻¹"}, {"measurement": "self-cleavage kobs at 2500 uM GlcN6P", "setting": "[4]", "value": "4.98e-05 ± 1.3e-05", "unit": "s⁻¹"}, {"measurement": "self-cleavage kobs at 10000 uM GlcN6P", "setting": "[5]", "value": "0.000129 ± 3e-05", "unit": "s⁻¹"}]}
{"variant": "AUAAAAGCGCCAGAACUACAGAAAUGUAGUGGUCGAGGAGGAGGUUUAUCGAAUUUUCGGCGGAUGCCUCCAAA", "note": "[U31G A33U]", "values": [{"measurement": "self-cleavage kobs at 40 uM GlcN6P", "setting": "[1]", "value": "< 1e-05", "unit": "s⁻¹"}, {"measurement": "self-cleavage kobs at 2500 uM GlcN6P", "setting": "[4]", "value": "3.73e-05 ± 1.2e-05", "unit": "s⁻¹"}, {"measurement": "self-cleavage kobs at 10000 uM GlcN6P", "setting": "[5]", "value": "7.23e-05 ± 1.2e-05", "unit": "s⁻¹"}]}
{"variant": "AUAAAAGCGCCAGAACUACAGAAAUGUAGUCGACGAGAAGGCGGUUUAUCGAAUUUUCGCCGGAUGCCUCCAAA", "note": "[U31C G38A A42C G60C]", "values": [{"measurement": "self-cleavage kobs at 40 uM GlcN6P", "setting": "[1]", "value": "< 1e-05", "unit": "s⁻¹"}, {"measurement": "self-cleavage kobs at 10000 uM GlcN6P", "setting": "[5]", "value": "< 1e-05", "unit": "s⁻¹"}]}
{"variant": "AUAAAAGCGCCAGAACUACAGAAAUGUAGUCGACGAGGAGGAGGUUUAUCAAAUUUUCGGCGGACGCCUCCAAA", "note": "[U31C G51A U65C]", "values": [{"measurement": "self-cleavage kobs at 40 uM GlcN6P", "setting": "[1]", "value": "< 1e-05", "unit": "s⁻¹"}, {"measurement": "self-cleavage kobs at 640 uM GlcN6P", "setting": "[2]", "value": "< 1e-05", "unit": "s⁻¹"}]}
{"variant": "AUAAAAGCGCCAGAACUACAGAAAUGUAGUCGACGAGGAGGAGGUUUAUCGAAUUUUCGGCGGCUGCCUCCAAA", "note": "[U31C A64C]", "values": [{"measurement": "self-cleavage kobs at 40 uM GlcN6P", "setting": "[1]", "value": "< 1e-05", "unit": "s⁻¹"}, {"measurement": "self-cleavage kobs at 160 uM GlcN6P", "setting": "[3]", "value": "< 1e-05", "unit": "s⁻¹"}]}
{"variant": "AUAAAAGCGCCAGAACUACAGAAAUGUAGUAGACGAGGAGGAGGUUUAUCGAAUUUUCGGCGGAUGUCUCCAAA", "note": "[U31A C67U]", "values": [{"measurement": "self-cleavage kobs at 40 uM GlcN6P", "setting": "[1]", "value": "0.000116 ± 1.4e-05", "unit": "s⁻¹"}, {"measurement": "self-cleavage kobs at 640 uM GlcN6P", "setting": "[2]", "value": "0.00143 ± 0.00019", "unit": "s⁻¹"}, {"measurement": "self-cleavage kobs at 160 uM GlcN6P", "setting": "[3]", "value": "0.000324 ± 8.8e-05", "unit": "s⁻¹"}, {"measurement": "self-cleavage kobs at 2500 uM GlcN6P", "setting": "[4]", "value": "0.00135 ± 0.00029", "unit": "s⁻¹"}, {"measurement": "self-cleavage kobs at 10000 uM GlcN6P", "setting": "[5]", "value": "0.00427 ± 0.00063", "unit": "s⁻¹"}]}
